How the values were obtained:
Type in all cases: in vivo
Plasmopara viticola = assay: Test Example G: Downy mildew on vine; settings: Downy mildew on vine; 250 ppm spray, 2.5 ml/pot; evaluated 7-10 days after inoculation
From the text: [Test Example G] Downy Mildew on Vine
Seeds of a test plant (grape variety: Neomuscat) were planted followed by cultivating until three to four first leaves appeared. […] After the sprayed dilutions were dried, a zoosporangia suspension (1-2×10^4 zoosporangia/ml) of Plasmopara viticola was inoculated to the plants by spraying.

[1] = tested on: Blumeria graminis f sp. hordei; assay: Test Example D: Powdery mildew on barley; settings: Powdery mildew on barley; control value=100{1-(n/3)}
From the text: [Test Example D] Powdery Mildew on Barley
After the sprayed dilutions were dried, conidia of Blumeria graminis f sp. hordei were inoculated to the plants by shaking off.

Puccinia recondita = assay: Test Example E: Brown rust on wheat; settings: Brown rust on wheat; control value=100{1-(n/3)}
From the text: [Test Example E] Brown Rust on Wheat

Alternaia brassicicola = assay: Test Example C: Alternaria sooty spot on cabbage; settings: Alternaria sooty spot on cabbage; control value=100{1-(n/3)}
From the text: [Test Example C] Alternaria Sooty Spot on Cabbage
Seeds of a test plant (cabbage variety: Shikidori) were planted followed by cultivating until the cotyledons extended.

Botrytis cinerea = assay: Test Example B: Gray mold on tomato; settings: Gray mold on tomato; control value=100{1-(n/3)}
From the text: [Test Example B] Gray Mold on Tomato
Seeds of a test plant (tomato variety: Oogata Fukuju) were planted followed by cultivating until three to five first leaves (true leaves) appeared.

## CCn1c(-c2c(F)cc(OC)cc2F)c(-c2ccccc2)cc(Cl)c1=O [Compound 773]
Plasmopara viticola
  Test G (control value class): H (H shows more than 50% of control values)
[1]
  Test D (control value class): H (H shows more than 50% of control values)
Puccinia recondita
  Test E (control value class): H (H shows more than 50% of control values)
Alternaia brassicicola
  Test C (control value class): H (H shows more than 50% of control values)
Botrytis cinerea
  Test B (control value class): H (H shows more than 50% of control values)

## CCn1c(-c2c(F)cc(F)cc2F)c(-c2ccccc2)cc(Br)c1=O [Compound 774]
Plasmopara viticola
  Test G (control value class): L (L shows 50% or less of control values)
[1]
  Test D (control value class): H (H shows more than 50% of control values)
Puccinia recondita
  Test E (control value class): H (H shows more than 50% of control values)
Alternaia brassicicola
  Test C (control value class): H (H shows more than 50% of control values)
Botrytis cinerea
  Test B (control value class): H (H shows more than 50% of control values)

## CCn1c(-c2c(F)cc(OC)cc2F)c(-c2ccccc2)cc(Br)c1=O [Compound 775]
Plasmopara viticola
  Test G (control value class): L (L shows 50% or less of control values)
[1]
  Test D (control value class): L (L shows 50% or less of control values)
Puccinia recondita
  Test E (control value class): H (H shows more than 50% of control values)
Alternaia brassicicola
  Test C (control value class): H (H shows more than 50% of control values)
Botrytis cinerea
  Test B (control value class): H (H shows more than 50% of control values)

## COc1cc(F)c(-c2c(-c3ccc(OC)cc3Cl)cc(Cl)c(=O)n2C)c(F)c1 [Compound 776]
Plasmopara viticola
  Test G (control value class): L (L shows 50% or less of control values)
[1]
  Test D (control value class): L (L shows 50% or less of control values)
Puccinia recondita
  Test E (control value class): L (L shows 50% or less of control values)
Alternaia brassicicola
  Test C (control value class): L (L shows 50% or less of control values)
Botrytis cinerea
  Test B (control value class): L (L shows 50% or less of control values)

## Cn1c(-c2c(F)cc(F)cc2F)c(-c2ccccc2)ccc1=O [Compound 777]
Plasmopara viticola
  Test G (control value class): H (H shows more than 50% of control values)
[1]
  Test D (control value class): H (H shows more than 50% of control values)
Puccinia recondita
  Test E (control value class): H (H shows more than 50% of control values)
Alternaia brassicicola
  Test C (control value class): H (H shows more than 50% of control values)
Botrytis cinerea
  Test B (control value class): H (H shows more than 50% of control values)

## COc1cc(F)c(-c2c(-c3ccccc3)ccc(=O)n2C)c(F)c1 [Compound 778]
Plasmopara viticola
  Test G (control value class): H (H shows more than 50% of control values)
[1]
  Test D (control value class): H (H shows more than 50% of control values)
Puccinia recondita
  Test E (control value class): H (H shows more than 50% of control values)
Alternaia brassicicola
  Test C (control value class): H (H shows more than 50% of control values)
Botrytis cinerea
  Test B (control value class): H (H shows more than 50% of control values)

## Cn1c(-c2c(F)cc(F)cc2F)c(-c2ccccc2)cc(Cl)c1=O [Compound 779]
Plasmopara viticola
  Test G (control value class): H (H shows more than 50% of control values)
[1]
  Test D (control value class): H (H shows more than 50% of control values)
Puccinia recondita
  Test E (control value class): H (H shows more than 50% of control values)
Alternaia brassicicola
  Test C (control value class): H (H shows more than 50% of control values)
Botrytis cinerea
  Test B (control value class): H (H shows more than 50% of control values)

## Cn1c(-c2c(F)cc(F)cc2F)c(-c2ccccc2)cc(Br)c1=O [Compound 780]
Plasmopara viticola
  Test G (control value class): L (L shows 50% or less of control values)
[1]
  Test D (control value class): H (H shows more than 50% of control values)
Puccinia recondita
  Test E (control value class): H (H shows more than 50% of control values)
Alternaia brassicicola
  Test C (control value class): H (H shows more than 50% of control values)
Botrytis cinerea
  Test B (control value class): H (H shows more than 50% of control values)

## COc1cc(F)c(-c2c(-c3ccccc3)cc(Br)c(=O)n2C)c(F)c1 [Compound 782]
Plasmopara viticola
  Test G (control value class): H (H shows more than 50% of control values)
[1]
  Test D (control value class): H (H shows more than 50% of control values)
Puccinia recondita
  Test E (control value class): H (H shows more than 50% of control values)
Alternaia brassicicola
  Test C (control value class): H (H shows more than 50% of control values)
Botrytis cinerea
  Test B (control value class): H (H shows more than 50% of control values)

## CCn1c(-c2c(F)cccc2F)c(-c2cccc(OC)c2Cl)cc(Cl)c1=O [Compound 783]
Plasmopara viticola
  Test G (control value class): H (H shows more than 50% of control values)
[1]
  Test D (control value class): H (H shows more than 50% of control values)
Puccinia recondita
  Test E (control value class): H (H shows more than 50% of control values)
Alternaia brassicicola
  Test C (control value class): H (H shows more than 50% of control values)
Botrytis cinerea
  Test B (control value class): H (H shows more than 50% of control values)

## COc1cccc(-c2ccc(=O)n(C)c2-c2c(F)cccc2F)c1Cl [Compound 784]
Plasmopara viticola
  Test G (control value class): H (H shows more than 50% of control values)
[1]
  Test D (control value class): H (H shows more than 50% of control values)
Puccinia recondita
  Test E (control value class): H (H shows more than 50% of control values)
Alternaia brassicicola
  Test C (control value class): H (H shows more than 50% of control values)
Botrytis cinerea
  Test B (control value class): H (H shows more than 50% of control values)

## COc1cccc(-c2cc(Cl)c(=O)n(C)c2-c2c(F)cccc2F)c1Cl [Compound 785]
Plasmopara viticola
  Test G (control value class): H (H shows more than 50% of control values)
[1]
  Test D (control value class): H (H shows more than 50% of control values)
Puccinia recondita
  Test E (control value class): H (H shows more than 50% of control values)
Alternaia brassicicola
  Test C (control value class): H (H shows more than 50% of control values)
Botrytis cinerea
  Test B (control value class): H (H shows more than 50% of control values)

## COc1cccc(-c2cc(Br)c(=O)n(C)c2-c2c(F)cccc2F)c1Cl [Compound 786]
Plasmopara viticola
  Test G (control value class): H (H shows more than 50% of control values)
[1]
  Test D (control value class): H (H shows more than 50% of control values)
Puccinia recondita
  Test E (control value class): H (H shows more than 50% of control values)
Alternaia brassicicola
  Test C (control value class): H (H shows more than 50% of control values)
Botrytis cinerea
  Test B (control value class): H (H shows more than 50% of control values)

## COc1cccc(-c2cc(Cl)c(=O)n(C)c2-c2c(F)cc(F)cc2F)c1Cl [Compound 787]
Plasmopara viticola
  Test G (control value class): L (L shows 50% or less of control values)
[1]
  Test D (control value class): L (L shows 50% or less of control values)
Puccinia recondita
  Test E (control value class): H (H shows more than 50% of control values)
Alternaia brassicicola
  Test C (control value class): H (H shows more than 50% of control values)
Botrytis cinerea
  Test B (control value class): H (H shows more than 50% of control values)

## COc1cc(F)c(-c2c(-c3cccc(OC)c3Cl)cc(Cl)c(=O)n2C)c(F)c1 [Compound 788]
Plasmopara viticola
  Test G (control value class): L (L shows 50% or less of control values)
[1]
  Test D (control value class): L (L shows 50% or less of control values)
Puccinia recondita
  Test E (control value class): H (H shows more than 50% of control values)
Alternaia brassicicola
  Test C (control value class): H (H shows more than 50% of control values)
Botrytis cinerea
  Test B (control value class): H (H shows more than 50% of control values)

## CCn1c(-c2c(F)cc(F)cc2F)c(-c2cc(F)cc(F)c2)ccc1=O [Compound 789]
Plasmopara viticola
  Test G (control value class): L (L shows 50% or less of control values)
[1]
  Test D (control value class): H (H shows more than 50% of control values)
Puccinia recondita
  Test E (control value class): H (H shows more than 50% of control values)
Alternaia brassicicola
  Test C (control value class): H (H shows more than 50% of control values)
Botrytis cinerea
  Test B (control value class): H (H shows more than 50% of control values)

## CCn1c(-c2c(F)cc(OC)cc2F)c(-c2cc(F)cc(F)c2)ccc1=O [Compound 790]
Plasmopara viticola
  Test G (control value class): H (H shows more than 50% of control values)
[1]
  Test D (control value class): H (H shows more than 50% of control values)
Puccinia recondita
  Test E (control value class): H (H shows more than 50% of control values)
Alternaia brassicicola
  Test C (control value class): H (H shows more than 50% of control values)
Botrytis cinerea
  Test B (control value class): H (H shows more than 50% of control values)

## CCn1c(-c2c(F)cc(F)cc2F)c(-c2cc(F)cc(F)c2)cc(Cl)c1=O [Compound 791]
Plasmopara viticola
  Test G (control value class): L (L shows 50% or less of control values)
[1]
  Test D (control value class): H (H shows more than 50% of control values)
Puccinia recondita
  Test E (control value class): H (H shows more than 50% of control values)
Alternaia brassicicola
  Test C (control value class): H (H shows more than 50% of control values)
Botrytis cinerea
  Test B (control value class): H (H shows more than 50% of control values)

## CCn1c(-c2c(F)cc(F)cc2F)c(-c2cc(O)ccc2Cl)cc(Cl)c1=O [Compound 792]
Plasmopara viticola
  Test G (control value class): H (H shows more than 50% of control values)
[1]
  Test D (control value class): L (L shows 50% or less of control values)
Puccinia recondita
  Test E (control value class): H (H shows more than 50% of control values)
Alternaia brassicicola
  Test C (control value class): H (H shows more than 50% of control values)
Botrytis cinerea
  Test B (control value class): H (H shows more than 50% of control values)

## CCOc1ccc(Cl)c(-c2cc(Cl)c(=O)n(CC)c2-c2c(F)cc(F)cc2F)c1 [Compound 793]
Plasmopara viticola
  Test G (control value class): L (L shows 50% or less of control values)
[1]
  Test D (control value class): H (H shows more than 50% of control values)
Puccinia recondita
  Test E (control value class): H (H shows more than 50% of control values)
Alternaia brassicicola
  Test C (control value class): H (H shows more than 50% of control values)
Botrytis cinerea
  Test B (control value class): H (H shows more than 50% of control values)

## CCn1c(-c2c(F)cc(F)cc2F)c(-c2cc(OCC#N)ccc2Cl)cc(Cl)c1=O [Compound 794]
Plasmopara viticola
  Test G (control value class): H (H shows more than 50% of control values)
[1]
  Test D (control value class): H (H shows more than 50% of control values)
Puccinia recondita
  Test E (control value class): H (H shows more than 50% of control values)
Alternaia brassicicola
  Test C (control value class): H (H shows more than 50% of control values)
Botrytis cinerea
  Test B (control value class): H (H shows more than 50% of control values)

Source: US10299477B2 (priority 2015, dated 2019)
